# Test results as given in the supplement of paper PMC8728848.
# Some of the results follow.
# B1: Epa3to1 (Candida glabrata) (protein)
# chain: MGSSHHHHHHSSGLVPRGSHMKRELSSQNPFGYPIGCSPQDVAIIPGLTMELYSYPIVSGTPPNCYDASYVDPEYPRTGYLKRKMVGKSTGVTGNLNYKYSVEKACMVKYGNLPAGYNYNEPLTVSNFTMILYGYFKAQTTGLHTFFVNADDLLYINFGAGNAFDCCKREDSKTKLGEYVAYDIWHVDSSKNKVSLFLEKDLYYPIRMFFNNREYDSSLDLSFSVNGATDQISDFSGYLYSVPDQPDTCPAHIGYDTTCR
# Experiments:
# Assay in all cases: glycan array binding signal (z-score within array); higher = stronger binding
# Settings in all cases: glycan notation: IUPAC condensed, linker removed
# [1] = target: GlcNAc(b1-3)Gal(b1-4)GlcNAc(b1-2)Man(a1-3)[GlcNAc(b1-3)Gal(b1-4)GlcNAc(b1-2)Man(a1-6)]Man(b1-4)GlcNAc(b1-4)[Fuc(a1-6)]GlcNAc
# Procedure, shortened: (§1)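 From the Consortium for Functional Glycomics database, 3228 arrays were curated, keeping only those whose protein sequence was available. Binding is given as a within-array Z-score averaged across arrays sharing a protein sequence and across linkers. Negative Z-scores can be read as non-binding.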
# [2] = target: GlcNAc(b1-3)Gal(b1-4)GlcNAc(b1-2)[GlcNAc(b1-3)Gal(b1-4)GlcNAc(b1-6)]Man(a1-6)[GlcNAc(b1-3)Gal(b1-4)GlcNAc(b1-2)Man(a1-3)]Man(b1-4)GlcNAc(b1-4)GlcNAc
# Procedure, shortened: as §1
# [3] = target: GlcNAc(b1-3)Gal(b1-4)GlcNAc(b1-3)Gal(b1-4)GlcNAc
# Procedure, shortened: as §1
# [4] = target: GlcNAc(b1-3)Gal(b1-4)GlcNAc(b1-3)Gal(b1-4)GlcNAc(b1-2)Man(a1-3)[GlcNAc(b1-3)Gal(b1-4)GlcNAc(b1-3)Gal(b1-4)GlcNAc(b1-2)Man(a1-6)]Man(b1-4)GlcNAc(b1-4)GlcNAc
# Procedure, shortened: as §1
# [5] = target: GlcNAc(b1-3)Gal(b1-4)GlcNAc(b1-3)Gal(b1-4)GlcNAc(b1-2)Man(a1-3)[GlcNAc(b1-3)Gal(b1-4)GlcNAc(b1-3)Gal(b1-4)GlcNAc(b1-2)Man(a1-6)]Man(b1-4)GlcNAc(b1-4)[Fuc(a1-6)]GlcNAc
# Procedure, shortened: as §1
# [6] = target: GlcNAc(b1-3)Gal(b1-4)GlcNAc(b1-3)Gal(b1-4)GlcNAc(b1-2)[GlcNAc(b1-3)Gal(b1-4)GlcNAc(b1-3)Gal(b1-4)GlcNAc(b1-6)]Man(a1-6)[GlcNAc(b1-3)Gal(b1-4)GlcNAc(b1-3)Gal(b1-4)GlcNAc(b1-2)Man(a1-3)]Man(b1-4)GlcNAc(b1-4)[Fuc(a1-6)]GlcNAc
# Procedure, shortened: as §1
# [7] = target: GlcNAc(b1-3)Gal(b1-4)GlcNAc(b1-3)Gal(b1-4)GlcNAc(b1-3)Gal(b1-4)GlcNAc(b1-2)Man(a1-3)[GlcNAc(b1-3)Gal(b1-4)GlcNAc(b1-3)Gal(b1-4)GlcNAc(b1-3)Gal(b1-4)GlcNAc(b1-2)Man(a1-6)]Man(b1-4)GlcNAc(b1-4)GlcNAc
# Procedure, shortened: as §1
# [8] = target: GlcNAc(b1-3)Gal(b1-4)GlcNAc(b1-3)Gal(b1-4)GlcNAc(b1-3)Gal(b1-4)GlcNAc(b1-2)Man(a1-3)[GlcNAc(b1-3)Gal(b1-4)GlcNAc(b1-3)Gal(b1-4)GlcNAc(b1-3)Gal(b1-4)GlcNAc(b1-2)Man(a1-6)]Man(b1-4)GlcNAc(b1-4)[Fuc(a1-6)]GlcNAc
# Procedure, shortened: as §1
# [9] = target: GlcNAc(b1-3)Gal(b1-4)GlcNAc(b1-3)Gal(b1-4)GlcNAc(b1-3)Gal(b1-4)GlcNAc(b1-2)[GlcNAc(b1-3)Gal(b1-4)GlcNAc(b1-3)Gal(b1-4)GlcNAc(b1-3)Gal(b1-4)GlcNAc(b1-6)]Man(a1-6)[GlcNAc(b1-3)Gal(b1-4)GlcNAc(b1-3)Gal(b1-4)GlcNAc(b1-3)Gal(b1-4)GlcNAc(b1-2)Man(a1-3)]Man(b1-4)GlcNAc(b1-4)[Fuc(a1-6)]GlcNAc
# Procedure, shortened: as §1
# [10] = target: GlcNAc(b1-3)Gal(b1-4)GlcNAc(b1-3)Gal(b1-4)GlcNAc(b1-3)Gal(b1-4)GlcNAc(b1-3)Gal(b1-4)GlcNAc(b1-2)Man(a1-3)[GlcNAc(b1-3)Gal(b1-4)GlcNAc(b1-3)Gal(b1-4)GlcNAc(b1-3)Gal(b1-4)GlcNAc(b1-3)Gal(b1-4)GlcNAc(b1-2)Man(a1-6)]Man(b1-4)GlcNAc(b1-4)GlcNAc
# Procedure, shortened: as §1
# [11] = target: GlcNAc(b1-3)Gal(b1-4)GlcNAc(b1-3)Gal(b1-4)GlcNAc(b1-3)Gal(b1-4)GlcNAc(b1-3)Gal(b1-4)GlcNAc(b1-2)Man(a1-3)[GlcNAc(b1-3)Gal(b1-4)GlcNAc(b1-3)Gal(b1-4)GlcNAc(b1-3)Gal(b1-4)GlcNAc(b1-3)Gal(b1-4)GlcNAc(b1-2)Man(a1-6)]Man(b1-4)GlcNAc(b1-4)[Fuc(a1-6)]GlcNAc
# Procedure, shortened: as §1
# [12] = target: GlcNAc(b1-3)Gal(b1-4)GlcNAc(b1-3)Gal(b1-4)GlcNAc(b1-3)Gal(b1-4)GlcNAc(b1-3)Gal(b1-4)GlcNAc(b1-2)[GlcNAc(b1-3)Gal(b1-4)GlcNAc(b1-3)Gal(b1-4)GlcNAc(b1-3)Gal(b1-4)GlcNAc(b1-3)Gal(b1-4)GlcNAc(b1-6)]Man(a1-6)[GlcNAc(b1-3)Gal(b1-4)GlcNAc(b1-3)Gal(b1-4)GlcNAc(b1-3)Gal(b1-4)GlcNAc(b1-3)Gal(b1-4)GlcNAc(b1-2)Man(a1-3)]Man(b1-4)GlcNAc(b1-4)[Fuc(a1-6)]GlcNAc
# Procedure, shortened: as §1
# [13] = target: GlcNAc(b1-3)Gal(b1-4)GlcNAc(b1-3)Gal(b1-4)GlcNAc(b1-3)GalNAc
# Procedure, shortened: as §1
# [14] = target: GlcNAc(b1-3)Gal(b1-4)GlcNAc(b1-3)GalNAc
# Procedure, shortened: as §1
# [15] = target: GlcNAc(b1-3)Gal(b1-4)GlcNAc(b1-3)[GlcNAc(b1-3)Gal(b1-4)GlcNAc(b1-3)]GalNAc
# Procedure, shortened: as §1
# [16] = target: GlcNAc(b1-3)Gal(b1-4)GlcNAc(b1-6)[Gal(b1-3)]GalNAc
# Procedure, shortened: as §1
# [17] = target: GlcNAc(b1-3)Gal(b1-4)GlcNAc(b1-6)[GlcNAc(b1-3)Gal(b1-3)]GalNAc
# Procedure, shortened: as §1
# [18] = target: GlcNAc(b1-3)Gal(b1-4)GlcNAc(b1-6)[GlcNAc(b1-3)]Gal(b1-4)GlcNAc
# Procedure, shortened: as §1
# [19] = target: GlcNAc(b1-3)GalNAc
# Procedure, shortened: as §1
binder,measurement,setting,value
B1,glycan array binding signal (z-score),[1],-0.159
same,glycan array binding signal (z-score),[2],-0.36
same,glycan array binding signal (z-score),[3],-0.343
same,glycan array binding signal (z-score),[4],-0.623
same,glycan array binding signal (z-score),[5],-0.263
same,glycan array binding signal (z-score),[6],-0.011
same,glycan array binding signal (z-score),[7],-0.368
same,glycan array binding signal (z-score),[8],0.013
same,glycan array binding signal (z-score),[9],-0.012
same,glycan array binding signal (z-score),[10],-0.533
same,glycan array binding signal (z-score),[11],-0.036
same,glycan array binding signal (z-score),[12],0.314
same,glycan array binding signal (z-score),[13],-0.4
same,glycan array binding signal (z-score),[14],0.229
same,glycan array binding signal (z-score),[15],-0.249
same,glycan array binding signal (z-score),[16],0.148
same,glycan array binding signal (z-score),[17],-0.526
same,glycan array binding signal (z-score),[18],-0.631
same,glycan array binding signal (z-score),[19],-0.726
